About 12,000 (3.5%) of roughly 340,000 compounds were called active. The inconclusive results got no clear call from the source; some entries with a clear call stand among them for comparison. Calls come from the whole dose curve; as a rule, active = well fitted inhibition curve with a large enough effect; inconclusive = small, poorly fitted or top-dose-only effect, or another doubt; inactive = no such curve, though single readings can be large or run the other way. Potencies of inconclusive entries are left out as doubtful fits.
Experiment: qHTS Assay for Inhibitors of Hepatitis C Virus (HCV)
Conditions: Huh7.5.1 HCVcc-Cre (HCVcc is cell-culture hepatitis C virus) infection, luciferase reporter, 44 h; series mostly up to 41.8 µM
Procedure, shortened: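 Whole-lifecycle infectious HCVcc-Cre system; cells 1,000/well, compound then virus (~0.5 moi) added 4 h after plating, 44 h culture. Luciferase read 15 sec following 15 min substrate incubation, room temp.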
Potency is the fitted concentration of half-maximal effect; tags give direction and shape of the fitted curve.

Row | Compound | Potency
1 | CN(C)c1nc(NC(C)(C)C)nc(NC(C)(C)C)n1 | inconclusive [inhibitor, partial curve]
2 | O=C(CCCOc1ccccc1)Nc1cccc(S(=O)(=O)N2CCCCCC2)c1 | inconclusive [inhibitor, single point]
3 | COc1ccccc1CN1CC(C(=O)N(CCO)Cc2cccs2)CCC1=O (stereo unspecified) | inactive
4 | c1ccc(-n2cnc3ccccc32)nc1 | inactive
5 | Cc1nc(SCC(=O)NC(=O)NC2CCCCC2)nc(C)c1C | inconclusive [inhibitor, single point]
6 | CC(=O)c1c(C)[nH]c(C(=O)OCC(=O)NCc2ccc(Cl)cc2)c1C | active: 11.2 µM
7 | CC(c1ccco1)N(C(=O)c1ccccc1NS(=O)(=O)c1ccc(Cl)c([N+](=O)[O-])c1)c1ccccn1 (stereo unspecified) | inconclusive [inhibitor, single point]
8 | COc1ccc(-c2[nH]c3ccccc3c2SCCN)cc1 | inconclusive [inhibitor, single point]
9 | Cc1cnc(C(=O)OCC(=O)Nc2cc(-c3cc(C)c(C)cc3C)nn2-c2ccccc2)cn1 | inconclusive [inhibitor, single point]
10 | Brc1ccc2[nH]c3c(c2c1)CCC3 | inconclusive [inhibitor, single point]
11 | CCOc1ccccc1N1CCN(C(=O)c2ccc(Cl)c(S(=O)(=O)N3CCCCC3)c2)CC1 | active: 10 µM
12 | C/C(O)=C(\C#N)C(=O)Nc1cc(Br)ccc1Br | inconclusive [inhibitor, partial curve]
13 | Cc1onc(-c2c(Cl)cccc2Cl)c1C(=O)NNc1ccccc1 | inactive
14 | COc1cccc(-c2sc3ccc(OC)cc3c2C#CCCO)c1 | inconclusive [inhibitor, full curve]
15 | CC(C)(C)OC(=O)N/N=C\C=C\c1ccc2c(c1)OCO2 | inactive
16 | COc1ccc(C(=O)NCCN(C)C)c2nc3ccccc3cc12 | inconclusive [inhibitor, full curve]
17 | COCCOC(=O)C1=C(C)NC(=O)NC1c1cn(-c2ccccc2)nc1-c1cccs1 (stereo unspecified) | inactive
18 | CC(C)Nc1c(N)c(=O)oc2ccccc12 | inconclusive [inhibitor, single point]
19 | CCc1nc2ccccc2c(C(=O)OCC(=O)N2CC(C)OC(C)C2)c1C (stereo unspecified) | inconclusive [inhibitor, single point]
20 | O=C(CSc1nc2ncc(Cl)cc2[nH]1)c1ccc2c(c1)OCO2 | inactive
21 | O=C1C=C(Nc2ccccc2)c2ccccc2C1=O | active: 8.91 µM
22 | CCOc1cc(C=C(C(=O)OC)C(=O)OC)ccc1OCc1ccc([N+](=O)[O-])cc1 | active: 7.94 µM
23 | CCCCOc1ccc(C(O)C(CN2CCCCC2)c2ccccc2)cc1 (stereo unspecified) | inconclusive [inhibitor, single point]
24 | COc1ccc(Nc2nc(N)nc(CN3CCN(c4ccc(F)cc4)CC3)n2)cc1 | inconclusive [inhibitor, single point]

Row | Compound | Potency
25 | Cc1ccc2ccc3ccc(C)nc3c2n1 | active: 0.316 µM
26 | Cc1cc(C)n2c(SCc3ccc(Cl)cc3Cl)nnc2n1 | inconclusive [inhibitor, partial curve]
27 | COCCNC(=O)c1ccccc1NC(=O)c1ccccc1SC | inactive
28 | COc1ccccc1Oc1ccc(NC(=O)c2ccccc2)cc1 | inactive
29 | C#CCOCCOCCOCCNc1nc(N2CCN(C(=O)CCCCCCCCCCNC(=O)[C@@H](CCC(=O)O)n3cc(CCCCCN)nn3)CC2)nc(N2CCN(C(=O)CCCCCCCCCCNC(=O)[C@H](CO)n3cc(CCCCCN)nn3)CC2)n1 | inactive
30 | O=C(CSc1ccc(-c2cccnc2)nn1)Nc1ccc(F)c(F)c1 | inconclusive [inhibitor, single point]
31 | CCCS(=O)(=O)Nc1ccc(N2CCCCC2)c(S(=O)(=O)Nc2ccccc2OC)c1 | inconclusive [inhibitor, single point]
32 | CCC1CCCCN1S(=O)(=O)c1ccc(NC(=O)c2nc(S(C)(=O)=O)ncc2Cl)cc1 (stereo unspecified) | inconclusive [inhibitor, single point]
33 | NC(=S)NN=C(Cc1ccccc1)Cc1ccccc1 | inconclusive [inhibitor, partial curve]
34 | Nc1nc(Cl)cc(Sc2ccc3ccccc3c2)n1 | inactive
35 | COc1cccc(NC(=S)N2CCN(S(=O)(=O)c3ccc(F)cc3)CC2)c1 | inactive
36 | CC[C@]12c3[nH]c4ccc(Cl)cc4c3CCN1C(=O)[C@@H](CC(=O)NCc1cccc(C(F)(F)F)c1)C[C@@H]2C(=O)N1CCN(C(=O)c2ccco2)CC1 | active: 31.6 µM
37 | CCC(CC)C(=O)N(CCc1ccc(OC)cc1)Cc1nc2ccccc2c(=O)[nH]1 | active: 22.4 µM
38 | COc1ccc(NC(=O)c2cccc(NS(=O)(=O)c3ccccc3)c2)cc1 | inactive
39 | Cc1cc(NC(=O)c2ccccc2)n(-c2nc3ccccc3[nH]2)n1 | inconclusive [inhibitor, partial curve, poor fit]
40 | Cc1ccc(CNC(=O)C2CCCN2S(=O)(=O)c2ccc(F)cc2)cc1 (stereo unspecified) | inactive
41 | CC1(COS(N)(=O)=O)CCCCC1 | inconclusive [inhibitor, single point]
42 | Cc1onc(-c2ccc3c(c2)OCO3)c1-c1ccc2[nH]ccc2c1 | inconclusive [inhibitor, single point]
43 | O=C(NNC(=O)c1ccccc1F)c1ccc(-c2ccc(Cl)cc2)o1 | inconclusive [inhibitor, partial curve]
44 | Cc1sc2nc(-c3cccnc3)nc(Cl)c2c1-c1ccccc1 | inconclusive [inhibitor, partial curve]
45 | N#Cc1nc(-c2ccccc2F)oc1N1CCCC1 | inconclusive [inhibitor, single point]
46 | Cc1ccc(C(=O)N2CCCC2)cc1S(=O)(=O)N1CCOCC1 | inactive
47 | N#Cc1ccc(-c2csc(NNC(=O)c3ccccc3)n2)cc1 | inactive
48 | CCCCCn1c(=O)c(C(=O)Nc2ccccn2)c(O)c2ccccc21 | inconclusive [inhibitor, full curve]

Row | Compound | Potency
49 | CCOc1ccc(C(=O)NCC(=O)OCC(=O)N2CCCC2)cc1 | inactive
50 | CCOC(=O)Cc1csc(NC(=O)CSc2nnc(-c3ccncc3)n2Cc2ccco2)n1 | inconclusive [inhibitor, single point]
51 | CC(=O)N1CCCc2cc(S(=O)(=O)N3CCCC(C(=O)NCc4ccccc4Cl)C3)ccc21 (stereo unspecified) | inconclusive [inhibitor, single point]
52 | Cc1ccc(-c2cc(-c3ccccc3)cc(-c3ccccc3)[n+]2-c2ccccc2)cc1 | active: 6.31 µM
53 | Oc1ccc2c(c1)c1c3n2CCNC3CCC1 (stereo unspecified) | inconclusive [inhibitor, single point]
54 | O=C(/C=C1\NC2(CCCC2)Cc2ccccc21)C(=O)N/N=C/c1ccc(O)c(O)c1 | inconclusive [inhibitor, full curve]
55 | Cc1ccc(C(CNS(=O)(=O)c2ccc(F)cc2)N2CCN(C)CC2)cc1 (stereo unspecified) | inconclusive [inhibitor, partial curve]
56 | Cc1ccccc1N/C(=C(/C(Cl)=C(Cl)Cl)[N+](=O)[O-])n1nnc2ccccc21 | inconclusive [inhibitor, partial curve]
57 | COc1ccc(S(=O)(=O)N2CCC(C(=O)N(C)Cc3ccc(C)o3)CC2)cc1OC | inactive
58 | CC1CCN(S(=O)(=O)c2ccc(NC(=O)c3cccs3)cc2)CC1 | inconclusive [inhibitor, partial curve, poor fit]
59 | COc1cc(/C=C(\C#N)c2nc3ccccc3[nH]2)ccc1Oc1ccc([N+](=O)[O-])cn1 | active: 0.891 µM
60 | CS(=O)(=O)c1ccc(S(=O)CC(=O)Oc2ccc(Cl)cc2)c([N+](=O)[O-])c1 (stereo unspecified) | inconclusive [inhibitor, single point]
61 | CCCCn1c(=NC(=O)c2ccc3c(c2)OCO3)c(C#N)cc2c(=O)n3cccc(C)c3nc21 | inconclusive [inhibitor, full curve]
62 | CN(C(=O)CC1C(=O)NCCN1Cc1c(F)cccc1Cl)C1CCOCC1 (stereo unspecified) | inactive
63 | CCOC(=O)C(CC)n1cnc2c(cnn2-c2ccc(Cl)cc2)c1=O (stereo unspecified) | inconclusive [inhibitor, single point]
64 | COc1cc(C2OCC3C(c4cc(OC)c(OC)c(OC)c4)OCC23)cc(OC)c1OC (stereo unspecified) | inconclusive [inhibitor, single point]
65 | CCc1ccc2oc(=O)cc(CN3CCN(c4ccc(F)cc4)CC3)c2c1 | inconclusive [inhibitor, single point]
66 | CCN(CC)S(=O)(=O)c1ccc2[nH]cc(C(=O)NCCc3ccc(OC)c(OC)c3)c(=O)c2c1 | inactive
67 | Cc1cccc(Cl)c1NC(=O)N1CCN(c2ccnc3cc(Cl)ccc23)CC1 | inconclusive [inhibitor, single point]
68 | O=C1COc2ccc(C(=O)COC(=O)c3ncc(Cl)c(Cl)c3Cl)cc2N1 | inactive
69 | O=C(CC1CCS(=O)(=O)C1)NC1CCCCC1 (stereo unspecified) | inactive
70 | C=CC(=O)Nc1ccc(N(C)c2ccnc(Nc3ccc(N4CCN(C)CC4)cc3)n2)cc1 | inconclusive [inhibitor, single point]
71 | CN(CC(=O)Nc1cccc(F)c1)C(=O)CNC(=O)Cc1cccc2ccccc12 | inactive

From PubChem BioAssay AID651820 (National Center for Advancing Translational Sciences (NCATS), 2012)
